± gives the standard deviation of the averaged measurements. The list shows a part of the results.
Each sequence was assayed on PfAP2-EXP AP2 domain (GST-tagged) (assay: gcPBM binding intensity (ln(normalized median fluorescence intensity)); higher = stronger DNA binding).
In short: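 DNA-binding domains from P. falciparum, fused to GST and produced in E. coli, were put on an Agilent 4 × 180k double-stranded probe array for 1 h in 1× PBS holding 1% milk, 0.2 mg/ml BSA, 0.5% salmon testes DNA and 0.03% Triton X-100. Probes were primer-extended, 36 bp long and drawn from intergenic genomic regions, with negative controls included. After Alexa488 anti-GST antibody detection and a 488 nm scan, binding intensity was set as the highest Masliner-normalised natural-log median intensity across replicate spots of either probe orientation.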

Sequence | gcPBM binding intensity (ln)
TTTTTTTTTTTTTTTAAACACACGGTGTGAAAATTA [CACACA_site3818] | 8.29 ± 0.49
ATAATTTTGTATAATTGTACATTATTTTAAATAAAT [XGTACX_site7952] | 8.28 ± 0.29
AAAACATAACATTGTTGTACTACTAATAAAATAAGT [XGTACX_site6149] | 8.7 ± 0.085
TCTTTATTATTCGCCACACACATATAAATATAAATA [CACACA_site7441] | 8.88 ± 0.38
TTCTTGTTCCTGAAAGTGCATATAACAAAAATAACA [GTGCAC_site9635] | 8.65 ± 0.21
ATAATTACATTCCATACACACATATATTTAAAGGTT [CACACA_site7403] | 8.59 ± 0.46
AATGATATATTTAAATGTACACATGAAATATAATAT [XGTACX_site2678] | 8.6 ± 0.3
TATCTTCAAGTATGTACACACTATATATAATAAAAT [CACACA_site5368] | 8.66 ± 0.31
TTATATTTGATAGTTTGTACATATAATTATTATCAT [XGTACX_site5676] | 8.7 ± 0.41
TCTTCTTTAAAAGAGGTGCACTATATAATGTGATTA [GTGCAC_site9431] | 8.89 ± 0.042
TAATTATACTTATTTTGTACGCAATATTTAAAATAA [XGTACX_site8516] | 8.54 ± 0.62
ACATATAAATGATATGTACACACATTTATATATATA [CACACA_site9152] | 8.85 ± 0.071
ATTTCTCTATCGTAATGTACAAAAAAAAGGAAAAAA [XGTACX_site1323] | 8.64 ± 0.54
TTTTTAACGTATAAGGTGCACTGTATATGGTACTCA | 9.39 ± 0.61
GACAAATGAAAAGATTGTACATGTATTTGAAGATTA [XGTACX_site6775] | 8.81 ± 0.38
TCTTTTATATTTTTTTGTACACAAGAATAAAGAAAA [XGTACX_site3394] | 8.62 ± 0.5
TGATTATATATAAATGTATGCATGTCTATTATGCTA [TGCATGCA_site543] | 8.43 ± 0.38
TACACAAAAATTTATACACACACATATATAATATAT [CACACA_site7931] | 8.49 ± 0.35
TATATATATATATATTGTACACATACATGTAGTTTT [XGTACX_site4848] | 10.2 ± 0.29

Sequence | gcPBM binding intensity (ln)
AAAGTAATATATAATACATGCGTAAATATTTATGTA [TGCATGCA_site254] | 8.86 ± 0.42
TATATATATATATAGGTGCAATATTGAAAAAATATC [GTGCAC_site9535] | 10.3 ± 0.21
TGCTTCTTTTAAAAACATGTTTGTATTCATTTTATA [CACACA_negctrl_site1627] | 8.97 ± 0.5
TTTTGGATGAACAGTACATGCAAAAACAAACTTGTA [TGCATGCA_site16] | 9.04 ± 0.43
ATTATATTATATATATGTACATATATATATCATAAT [XGTACX_site1] | 8.35 ± 0.23
ATAATACCATTAATTTGTACATATATATTATATATA [XGTACX_site4345] | 8.51 ± 0.35
ACAAAAAGTTACATACGTACGTAAAATTGTAATAAA [XGTACX_site2358] | 8.66 ± 0.23
TTTATTTTAAATTTACGTACATAATTAATCATATTT [XGTACX_site7529] | 8.56 ± 0.45
ATAAAAAATTAGGACTGTACATAATTTTTGTGATTT [XGTACX_site2857] | 8.46 ± 0.33
TATATATATAAGGATAGTACATATATTTATATGATT [XGTACX_site4954] | 9.15 ± 0.12
TTATATATTTCTATTGCACACTATATTTTATGAAGA [CACACA_site2910] | 8.76 ± 0.34
AGGTTATAATTGTTTTCACACATTTAAAAATGTTAT [CACACA_site5097] | 8.6 ± 0.4
TTAACTTATTTGTAAAGTACATTAATAAAAAGAAAA [XGTACX_site1588] | 8.47 ± 0.37
GACTACACACAAGGGTGTACATATATATTATATATA [XGTACX_site2247] | 8.38 ± 0.32
GTATAATAAATGATAGCACACATATGTACTTATATA [CACACA_site8188] | 8.57 ± 0.25
ATGAAATTTATATCATGTACATACAAGAGAAAAAAA [XGTACX_site3326] | 8.62 ± 0.42
AAAATTATAAAATGGGCACACATGAATATTGTAGTA [CACACA_site5261] | 8.62 ± 0.57
AAAAAAAAAATATACACACACACATACCCATAAATA [CACACA_site5981] | 8.73 ± 0.59
GATCGCATGAAATGAACACACATAAAAAAAATATAC [CACACA_site4087] | 8.88 ± 0.4

Sequence | gcPBM binding intensity (ln)
TTATAAAAATACAGTTAACACACATGTGTATATATA [CACACA_site9257] | 8.64 ± 0.35
AAAATAATCTTATGCACACCAAAAATTTATATAATC [CACACA_site1235] | 8.48 ± 0.32
TAATGCAACATTTATGTGCACATAAATATTTTTTAA | 8.6 ± 0.21
AAAACACAATTTATTACACACATATATTATAGATTA [CACACA_site6780] | 8.23 ± 0.45
TTTTTTTTTTATTCATGTACGTATTTAAATAATTCT [XGTACX_site2651] | 8.64 ± 0.41
GAGTTTTAATGTAATAGTACTTTAATTATTATATAT [XGTACX_site4527] | 8.49 ± 0.33
ATCTTTTATATATTCACACATAAAATTATACAGATA [CACACA_site5277] | 8.52 ± 0.42
TATTTTTATTTTACATTATTTGTTTATAATTCTTAA [CACACA_negctrl_site1358] | 8.5 ± 0.41
TGTATATACATAAAGTGTACGTATATTTATATATAT [XGTACX_site4320] | 8.63 ± 0.25
ATATATATATATAATGCACACATTATAAATTATGTA [CACACA_site5802] | 9.97 ± 0.2
AATAAATAAATAAATATATATATATATATATATATA [CACACA_negctrl_site708] | 10.1 ± 0.41
AAAAAAAAAAAAAACACACAAACAAATGAATAAATA [CACACA_site3300] | 8.5 ± 0.72
AACAAAAGAAAAAAATATATATATTCGTCCTATTTT [CACACA_negctrl_site444] | 8.33 ± 0.48
CATCTGGTATCTAATAGTACATATATATAATATCTT [XGTACX_site2774] | 8.46 ± 0.4
TTAAAAAATATATACGTTGATATAATACAACTTGAC [CACACA_negctrl_site1551] | 8.36 ± 0.29
ATGTGTATATGTTAATGTACAAATTTTGAAAATGCC [XGTACX_site2685] | 8.97 ± 0.32
TGTATAACCATAAATTGTACAGAAAAAAGTATAAAA [XGTACX_site1493] | 8.79 ± 0.4
TATATATGCATTAAAGTGTTTTTTTTTTTTTTTTTT [CACACA_negctrl_site1353] | 8.79 ± 0.2
ATTTTTTTTTTTTATGGTACACACACGCGTATGGTT [XGTACX_site3888] | 8.63 ± 0.44
